Experimental data from the supplement of paper PMC4967469.

What was measured:
Test in all cases: Viability of human cancer cell lines after 72 h of drug (GDSC screen)
[1] = compound: COc1cc2c(Oc3ccc(NC(=O)C4(C(=O)Nc5ccc(F)cc5)CC4)cc3F)ccnc2cc1OCCCN1CCOCC1 [XL-880]; conditions: top dose 5.12 µM; top dose inferred
Procedure: (§1)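 Human cancer cell lines in 384-well plates, medium with 10% serum, drug for 72 h over a 256-fold dose range (nine 2-fold or five 4-fold steps up to the top dose). Adherent lines were fixed and stained with the nucleic acid dye Syto60, suspension lines read with resazurin; signal relative to control wells, capped at 0 and 100%. One two-parameter sigmoid per drug and line, fitted in a mixed model over all curves with the slope shared within a line.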

[2] = compound: CCC(=O)N1CCN(c2ccc(-n3c(=O)ccc4cnc5ccc(-c6cnc7ccccc7c6)cc5c43)cc2C(F)(F)F)CC1 [JW-7-52-1]; conditions: top dose 1.2 µM; top dose inferred
Procedure: as §1

[3] = compound: Cn1nnc2c(C(N)=O)ncn2c1=O [Temozolomide]; conditions: top dose 30 µM
Procedure: as §1

[4] = compound: Oc1ccc2ccccc2c1SSc1c(O)ccc2ccccc12 [IPA-3]; conditions: top dose 32 µM; top dose inferred
Procedure: as §1

[5] = compound: CN1CCc2c(c3ccccc3n2Cc2ccc(C(=O)NO)cc2)C1 [Tubastatin A]; conditions: top dose 20 µM
Procedure: as §1

[6] = compound: CCCC[C@@H](C=O)NC(=O)[C@H](CC(C)C)NC(=O)[C@H](CC(C)C)NC(=O)OCc1ccccc1 [Z-LLNle-CHO]; conditions: top dose 2.56 µM; top dose inferred
Procedure: as §1

[7] = compound: CN(C)C/C=C/C(=O)Nc1ccc(C(=O)Nc2cccc(Nc3nccc(-c4cccnc4)n3)c2)cc1 [ZG-10]; conditions: top dose 10 µM; top dose inferred
Procedure: as §1

[8] = compound: CO[C@H]1C[C@@H]2CC[C@@H](C)[C@@](O)(O2)C(=O)C(=O)N2CCCC[C@H]2C(=O)O[C@H]([C@H](C)C[C@@H]2CC[C@@H](O)[C@H](OC)C2)CC(=O)[C@H](C)/C=C(\C)[C@@H](O)[C@@H](OC)C(=O)[C@H](C)C[C@H](C)/C=C/C=C/C=C/1C [Rapamycin]; conditions: top dose 0.1 µM; top dose inferred
Procedure: as §1

[9] = compound: O=C(NOCC1CC1)c1ccc(F)c(F)c1Nc1ccc(I)cc1Cl [CI-1040]; conditions: top dose 10 µM; top dose inferred
Procedure: as §1

Cell Line	AUC [1]	IC50 [1]	AUC [2]	IC50 [2]	AUC [3]	IC50 [3]	AUC [4]	IC50 [4]	AUC [5]	IC50 [5]	AUC [6]	IC50 [6]	AUC [7]	IC50 [7]	AUC [8]	IC50 [8]	AUC [9]	IC50 [9]
LB771-HNC (head and neck, adherent)	0.653	0.953 µM	0.499	0.0744 µM	0.98	> 30 µM	0.982	> 32 µM	0.968	> 20 µM	0.78	1.34 µM	0.766	4.61 µM	0.904	> 0.1 µM		
ES3 (Ewing sarcoma, adherent)	0.678	1.04 µM	0.92	> 1.2 µM	0.977	> 30 µM	0.738	9.96 µM	0.977	> 20 µM	0.968	> 2.56 µM	0.638	1.54 µM	0.981	> 0.1 µM		
LOXIMVI (melanoma, semi-adherent)	0.68	0.955 µM	0.623	0.157 µM	0.934	> 30 µM	0.887	29.1 µM	0.984	> 20 µM	0.853	1.68 µM	0.663	1.67 µM	0.96	> 0.1 µM		
RS4-11 (leukaemia, suspension)	0.316	0.103 µM	0.458	0.0583 µM	0.975	> 30 µM	0.85	21.1 µM	0.759	6.43 µM	0.666	0.444 µM	0.611	1.22 µM	0.972	> 0.1 µM		
COLO-829 (melanoma, adherent)	0.708	1.66 µM	0.664	0.267 µM	0.971	> 30 µM	0.978	> 32 µM	0.962	> 20 µM	0.852	> 2.56 µM	0.839	> 10 µM	0.978	> 0.1 µM		
LNCaP-Clone-FGC (prostate, adherent)	0.87	> 5.12 µM	0.935	> 1.2 µM	0.975	> 30 µM	0.878	> 32 µM	0.891	> 20 µM	0.952	> 2.56 µM	0.839	8.27 µM	0.881	> 0.1 µM		
NCI-H1355 (lung adenocarcinoma, adherent)	0.869	> 5.12 µM	0.268	0.012 µM	0.975	> 30 µM	0.871	> 32 µM	0.977	> 20 µM	0.754	1.23 µM	0.715	3.38 µM	0.163	< 0.000391 µM		
IST-MES1 (mesothelioma, adherent)	0.68	1.02 µM	0.678	0.237 µM	0.957	> 30 µM	0.904	> 32 µM	0.972	> 20 µM	0.854	2.05 µM	0.74	3.04 µM	0.983	> 0.1 µM		
SCC-15 (head and neck, adherent)	0.605	0.687 µM	0.868	> 1.2 µM	0.948	> 30 µM	0.823	28.2 µM	0.951	> 20 µM	0.857	> 2.56 µM	0.8	6.89 µM	0.979	> 0.1 µM		
KOPN-8 (B-cell leukaemia, suspension)	0.608	0.604 µM	0.517	0.0827 µM	0.978	> 30 µM	0.648	4.82 µM	0.724	4.84 µM	0.778	0.889 µM			0.447	0.00457 µM	0.708	2.19 µM
HDLM-2 (Hodgkin lymphoma, suspension)	0.883	> 5.12 µM	0.914	> 1.2 µM	0.948	> 30 µM	0.892	> 32 µM	0.989	> 20 µM	0.948	> 2.56 µM			0.891	> 0.1 µM	0.914	> 10 µM
MONO-MAC-6 (acute myeloid leukaemia, suspension)	0.101	< 0.02 µM	0.509	0.0793 µM	0.927	> 30 µM	0.907	> 32 µM	0.739	6.31 µM	0.757	0.933 µM			0.863	0.0952 µM	0.893	> 10 µM
AM-38 (glioma, semi-adherent)	0.598	0.597 µM	0.915	> 1.2 µM	0.979	> 30 µM	0.748	10.5 µM	0.863	17.8 µM	0.978	> 2.56 µM			0.929	> 0.1 µM	0.872	9.86 µM
NCI-H211 (small cell lung carcinoma, adherent)	0.639	0.764 µM	0.608	0.147 µM	0.978	> 30 µM	0.803	15.4 µM	0.815	10.6 µM	0.986	> 2.56 µM			0.739	0.0293 µM	0.938	> 10 µM
SKM-1 (haematopoietic neoplasm, suspension)			0.973	> 1.2 µM	0.947	> 30 µM					0.961	> 2.56 µM	0.62	1.39 µM	0.967	> 0.1 µM		
CP66-MEL (melanoma, adherent)	0.854	4.98 µM	0.652	0.21 µM	0.983	> 30 µM	0.947	> 32 µM	0.985	> 20 µM	0.72	0.742 µM			0.981	> 0.1 µM	0.38	0.278 µM

Cell Line	AUC [1]	IC50 [1]	AUC [2]	IC50 [2]	AUC [3]	IC50 [3]	AUC [4]	IC50 [4]	AUC [5]	IC50 [5]	AUC [6]	IC50 [6]	AUC [7]	IC50 [7]	AUC [8]	IC50 [8]	AUC [9]	IC50 [9]
TE-6 (oesophagus, adherent)	0.778	2.44 µM	0.838	1.02 µM	0.978	> 30 µM	0.845	29.2 µM	0.986	> 20 µM	0.96	> 2.56 µM			0.396	0.00308 µM	0.909	> 10 µM
UACC-257 (melanoma, adherent)	0.739	1.85 µM	0.565	0.118 µM	0.945	> 30 µM	0.951	> 32 µM	0.935	> 20 µM	0.751	1.03 µM			0.971	> 0.1 µM	0.575	1.06 µM
NB7 (neuroblastoma, adherent)	0.502	0.325 µM	0.983	> 1.2 µM	0.98	> 30 µM	0.816	18.8 µM	0.971	> 20 µM	0.949	> 2.56 µM	0.706	2.46 µM	0.944	> 0.1 µM		
ARH-77 (myeloma, suspension)	0.685	1.03 µM	0.504	0.077 µM	0.971	> 30 µM	0.971	> 32 µM	0.868	17 µM	0.773	0.957 µM			0.753	0.0324 µM	0.965	> 10 µM
RF-48 (stomach, adherent)	0.604	0.639 µM	0.55	0.105 µM	0.976	> 30 µM	0.703	8.09 µM	0.856	19.3 µM	0.803	1.45 µM			0.737	0.0327 µM	0.933	> 10 µM
EJM (lymphoid neoplasm, semi-adherent)	0.725	1.23 µM	0.818	0.543 µM	0.988	> 30 µM	0.869	21.9 µM	0.912	> 20 µM	0.791	0.951 µM			0.951	> 0.1 µM	0.909	> 10 µM
697 (lymphoblastic leukaemia, suspension)	0.47	0.269 µM	0.325	0.0273 µM	0.984	> 30 µM	0.739	8.12 µM	0.784	6.75 µM	0.754	0.71 µM			0.457	0.00489 µM	0.832	4.7 µM
GDM-1 (acute myeloid leukaemia, suspension)	0.079	< 0.02 µM	0.387	0.0373 µM	0.982	> 30 µM	0.977	> 32 µM	0.786	8.22 µM	0.769	0.928 µM			0.794	0.0438 µM	0.987	> 10 µM
NCI-H1869 (lung squamous cell carcinoma, adherent)	0.817	3.34 µM	0.863	> 1.2 µM	0.97	> 30 µM	0.849	29 µM	0.981	> 20 µM	0.734	0.821 µM			0.87	> 0.1 µM	0.866	> 10 µM
SUP-M2 (anaplastic large cell lymphoma, suspension)	0.528	0.374 µM	0.638	0.163 µM	0.922	27.3 µM	0.889	21.6 µM	0.746	5.11 µM	0.696	0.488 µM			0.949	> 0.1 µM	0.904	7.65 µM
NCI-H187 (small cell lung carcinoma, suspension)	0.753	1.84 µM	0.727	0.353 µM	0.981	> 30 µM	0.983	> 32 µM	0.879	> 20 µM	0.988	> 2.56 µM			0.922	> 0.1 µM	0.975	> 10 µM
YT (lymphoid neoplasm, suspension)	0.606	0.598 µM	0.992	> 1.2 µM	0.984	> 30 µM	0.467	1.65 µM	0.851	11.9 µM	0.96	> 2.56 µM			0.99	> 0.1 µM	0.682	
IMR-5 (neuroblastoma, adherent)	0.592	0.546 µM	0.556	0.104 µM	0.978	> 30 µM	0.844	17.7 µM	0.895	17.5 µM	0.834	1.31 µM			0.992	> 0.1 µM	0.963	> 10 µM
JVM-3 (lymphoid neoplasm, suspension)	0.677	1.01 µM	0.951	> 1.2 µM	0.82	17.5 µM	0.886	> 32 µM	0.969	> 20 µM	0.948	> 2.56 µM			0.987	> 0.1 µM	0.66	1.75 µM
NCI-H2081 (small cell lung carcinoma, suspension)	0.782	2.28 µM	0.906	> 1.2 µM	0.984	> 30 µM	0.823	20.3 µM	0.981	> 20 µM	0.896	> 2.56 µM			0.96	> 0.1 µM	0.966	> 10 µM
P32-ISH (Burkitt lymphoma, suspension)	0.387	0.17 µM	0.527	0.0873 µM	0.995	> 30 µM	0.612	3.74 µM	0.793	6.73 µM	0.799	0.893 µM			0.883	0.0621 µM	0.953	> 10 µM

The IC50 comes from the fitted curve, where viability falls to half of the control; a limit (>, <) means that the fit lies beyond the doses tested. AUC sums up the same curve from the lowest dose to the 256-fold higher top dose: 1 means no effect, lower means more sensitive. For some of these results: Any top dose called inferred was derived from the fitted curves, not read from the paper.
